T1: UNK ZnF1-3 (human, UniProt Q9C0B0 31-174)
T1 sequence: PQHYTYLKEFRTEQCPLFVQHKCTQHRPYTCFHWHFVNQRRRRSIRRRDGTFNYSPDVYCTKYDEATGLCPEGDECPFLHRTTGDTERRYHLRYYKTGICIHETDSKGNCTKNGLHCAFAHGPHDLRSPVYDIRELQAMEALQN

B1: chr18:52892545:52892546:-_ENSG00000196628_ENST00000354452|hu_hu|FALSE|FALSE (ssRNA)
RNA: GGGAGUUCUACAGUCCGACGAUCGAACAAUAAAUUGCAGCUUUUACUCUGAGUGAGAACAAAAUAUAAAGCACCAAUUUAAAAAAUAAUCAAAUGACUACAAUUUACUUUUUUGCUUUGUUUACAGAUUUGAAAAACUUUAAUCAACAGAGGAUUGAGCAUCA
B2: 155186719_155186839_170_ncRNA_ENSMUSG00000029068_ENSMUST00000139066|mouse|control|control (ssRNA)
RNA: GGGAGUUCUACAGUCCGACGAUCUCGAGGCCGCUCGACAUGGACGGCGUGAAGCGGAGCUUGUCGUCGGGCAGCAGGCAGUUUUCCAAGGUGAUGAGCACGCCCGAGUAGAGCCUGUCGCCGAUCAGCACCCCCUGAGACCCCCAACAGAGGAUUGAGCAUCA
B3: chr2:228221723:228221724:+_ENSG00000168958_ENST00000354503|hu_hu|motif|central (ssRNA)
RNA: GGGAGUUCUACAGUCCGACGAUCGACCAUUUCUCUUUUAGCACGUUCUUUGUUCUCCUCUUCCAGAAGUUGUAGACGUCGGUUUAGUUUGAUUAUCUGUCGUCUUAGUGAAGCUGCAUCUACAACAGUCAGGUCAUCUGACGUCAACAGAGGAUUGAGCAUCA
B4: chr2:42509997:42509998:+_ENSG00000143924_ENST00000318522|hu_mus|hu_hu_hu_mus_True|1_68 (ssRNA)
RNA: GGGAGUUCUACAGUCCGACGAUCUCGCUGAGUCCUCUCCUCAUAAUUAAACAGGACUACCACUGAGGCAAUGAAAUAAACUAUCUCCCCUGUGGGAAGCAGGUAUACAUUCGCUCUACAGUCCUUUCCUCGAUAACCAUAUGCCAACAGAGGAUUGAGCAUCA
B5: chr4:140556289:140556290:+_ENSMUSG00000036622_ENSMUST00000037055|mus_mus|mus_mus_mus_hu_False|78_78 (ssRNA)
RNA: GGGAGUUCUACAGUCCGACGAUCGAUGGAGCUCACCAGGCCCCCUUUUGCCGUGCAGAACCCUGUCCGGGUCACCACUGCCAGGACGUGCGGUCCCACAUAGGCCCGGGCCUGCAAGAUGAGGGUCCCGCAGAAGAGUGUGUGCAACAGAGGAUUGAGCAUCA
B6: chr4:140556289:140556290:+_ENSMUSG00000036622_ENSMUST00000037055|mus_mus|mus_mus_mus_hu_False|38_68 (ssRNA)
RNA: B5 RNA with C66G, G69A, A99G, C105U
B7: chr1:166823625:166823626:+_ENSG00000143157_ENST00000367875|hu_mus|motif|central (ssRNA)
RNA: GGGAGUUCUACAGUCCGACGAUCAUCAAAGUUUAUUACUGGGAUCAGUUUCUAUCUAGGGAGUGCCAGUCCCAGUGAGCGGUGGUAAUUCUCAGGAAACAGCUAUUCUGCUCAAUAGUUGUACUGGGGCUCUGUUAGGCAUAGCAACAGAGGAUUGAGCAUCA
B8: chr6:146524949:146524950:-_ENSMUSG00000040250_ENSMUST00000032427|mus_mus|FALSE|FALSE (ssRNA)
RNA: GGGAGUUCUACAGUCCGACGAUCCUGCCUACAGGAUUCUGCCAUGUAUGGGCAGUGAUCCACAACAAACACUGUUUUAUGAGAUUCAGAAAAAAUCUUCAUUUUGUUUUAACUUUCGUGCCUGGUCCUGCAGUGAAUGAACGGCAACAGAGGAUUGAGCAUCA
B9: 27506802_27509066_2324_CDS_ENSG00000077235_ENST00000561623|human|control|control (ssRNA)
RNA: GGGAGUUCUACAGUCCGACGAUCCAGUCCGGGAACUACAAUGGGGUGAUAAUUUCUAAGCGGGGUUAUGCCCAUUUUAUUAUCACUUUUUUUCAUCCGUCCACUUUCUGAUCUAGAGGAAGCACUCAGCUGAGAGUCCCCUGACAACAGAGGAUUGAGCAUCA
B10: 17640840_17640960_252_CDS_ENSG00000125844_ENST00000246043|human|control|control (ssRNA)
RNA: GGGAGUUCUACAGUCCGACGAUCAGCAGGAGCCCGCACUGGUUCUCGAAGGAGGACAGUCACAUUGGGGGCUGGAUCAUGAUCAGGUAUCUUCCCAUUAGGUUUCUCUUCCUUUUUCUUGGUCUUUCCUUUCUUCUCCACUGUCAACAGAGGAUUGAGCAUCA
B11: 65537091_65537211_888_ncRNA_ENSMUSG00000040652_ENSMUST00000153700|mouse|control|control (ssRNA)
RNA: GGGAGUUCUACAGUCCGACGAUCCUGUUCUUUAUGGAAAACAAUUUCAACGAGUCAACUCCGAGAACACAAUGGGCAACCCUCAACCUGAGCCCCUCAAUGUCCUUCCCUAGACAGCCAGAGACCCUCUCCUCUGUCCCAAGGCAACAGAGGAUUGAGCAUCA
B12: 154754478_154756338_64_3pUTR_ENSMUSG00000053870_ENSMUST00000066568|mouse|control|control (ssRNA)
RNA: GGGAGUUCUACAGUCCGACGAUCUAUUGCAACCACAUCCCAGAAUUCUCCAGCUGCCACGGGUUUGCCUCUCAGCUCAGAAAAUCUGCGCAGUUUCCGCAGGGUGGCUUCGCGGAGAGACGCCAUGGCCGACUUCCGGGAGCACAACAGAGGAUUGAGCAUCA
B13: 186313572_186313692_3588_CDS_ENSG00000047410_ENST00000367478|human|control|control (ssRNA)
RNA: GGGAGUUCUACAGUCCGACGAUCUGUUGUUUCUUCCAAAUGCUGACGGACUGAUGCCAUUUUUGAAACCUGCUCCUUCGCAGCUUGUAGAGCUUCAACAUCAGCAGCAUGCAGCAUCAAUUCUCUCUCAUACUUAUUCUGAGCCAACAGAGGAUUGAGCAUCA
B14: chr3:37096630:37096631:-_ENSG00000093167_ENST00000421276|perfect_dup|FALSE|FALSE (ssRNA)
RNA: GGGAGUUCUACAGUCCGACGAUCUUGUUCCAAGGUAGCUAUGUCUUGUUCUGCUUUCGAAAGCUUGAAUUUGUAUUCACUAAUUUGUCUAUUGGCAUCUCUCUGCAUCUCGAUGAACUGCAAGUCUGAGCCGUUCUGCAGUCCCAACAGAGGAUUGAGCAUCA
B15: chr5:24309113:24309114:-_ENSMUSG00000028945_ENSMUST00000030787|mus_mus|FALSE|FALSE (ssRNA)
RNA: GGGAGUUCUACAGUCCGACGAUCUUUUAUUUACAAGUAUACAUUUAACACAAUGAAAUAAACACUGAUAUAUUGAAGCCUAGUUAAUAGUAGUGUAACAUGUGUAUCAUUUUGAUGAUUACAUUAUUUUAAACAACAAACUACCAACAGAGGAUUGAGCAUCA
B16: chr5:140076784:140076785:+_ENSG00000112855_ENST00000230771|hu_hu|FALSE|FALSE (ssRNA)
RNA: GGGAGUUCUACAGUCCGACGAUCCCCAGCCUGAGUUGGGGUCUGCAGCAGCACUGCUUCAUAGAUCACUCCUGUAUAGUAGUCUAGGCCCCGAGCCAGGCUGAGGUCAAAGGAGAUCUUAUCAGCAAUUCCAAAUAAAGUCAGCAACAGAGGAUUGAGCAUCA
B17: chr2:5814250:5814251:-_ENSMUSG00000025816_ENSMUST00000102981|mus_hu|mus_mus_mus_hu_True|1_68 (ssRNA)
RNA: GGGAGUUCUACAGUCCGACGAUCUUCCUUUCCGGUUUCUGAAUUUCUGGUAGAACUGCACAGAAUGGUUUAAUAACUUCUAAAAAUUUGAUGCCCAUGGCUGCUGCUGGGGAGGCCCAGGGGGAAACCGCGGCCUCGCAGCUGCAACAGAGGAUUGAGCAUCA
B18: chr16:94690093:94690094:+_ENSMUSG00000040785_ENSMUST00000117648|mus_hu|mus_mus_mus_hu_True|38_68 (ssRNA)
RNA: GGGAGUUCUACAGUCCGACGAUCGGGCUGGGAUGACGGACACACAGCCUCGAUUCCAGGGGGAAAAAAAAAUAGCCGAUACUAAUUAAAAAGUGUUUUUAUAAUUGGAAAAUCAGAUUACAUCUAUAAAAGAUGAAAAGCAAACAACAGAGGAUUGAGCAUCA
B19: chr7:140404665:140404666:+_ENSG00000090266_ENST00000247866|hu_hu|hu_hu_hu_mus_False|78_108 (ssRNA)
RNA: GGGAGUUCUACAGUCCGACGAUCUGCGUACAGAGUGCCAGAGAGUUUACAGUGUCAGUCUUCAUCAUCAGGAGGGAUUCCCAGUUCUUCAUCUGUCCACUGUGAAGGAUCUGGAUAUGAAAAGUGACCCAGCACAGCAUCCGACAACAGAGGAUUGAGCAUCA
B20: chr5:128440902:128440903:+_ENSG00000066583_ENST00000173527|hu_mus|hu_hu_hu_mus_True|58_98 (ssRNA)
RNA: GGGAGUUCUACAGUCCGACGAUCUUGAACGGUGCUGCCAAGACCUUUGGGGUAUUGUUCCGUUAUGAUAACUGGAAUUCCUAAAAUCCGAGCUCCUUGCAACAGUCUCUGUCCCACACUAAUGAUGUCCCCAAAGUAUUUGAUCAACAGAGGAUUGAGCAUCA
B21: chr14:76904430:76904431:+_ENSMUSG00000022010_ENSMUST00000022587|mus_mus|mus_mus_mus_hu_True|38_38 (ssRNA)
RNA: GGGAGUUCUACAGUCCGACGAUCUGCAGCCAAAAACACCCUCGUGGAAAAAAAGAGGGAACACCAGCAGCCUUGUAUAAGCUAGAUAAAAUCUUCUAGCUGUCUGCAGCCCAGGGAGAAACAGAAAACGGCAGCCCUAAUUUACAACAGAGGAUUGAGCAUCA
B22: chr9:72466633:72466634:+_ENSMUSG00000037674_ENSMUST00000093820|mus_hu|FALSE|FALSE (ssRNA)
RNA: GGGAGUUCUACAGUCCGACGAUCCUGAUAAGACUGUCCAGGCACAGCAAAAGCAUGAGGUUUCCUGAAACGGUCUUCCACUAGUUCCUGAUAGCUUGGGAGAAUACCAUGGCCAGAAACUGAUGAAUUACCAACCCCACUAUACAACAGAGGAUUGAGCAUCA

Changes are numbered by the printed parent chain. This is one part of the list.

In this experiment the target is T1, UNK ZnF1-3. As to the kind of experiment: nsRBNS (natural sequence RNA bind-n-seq); RBNS binding buffer (assumed for nsRBNS): 25 mM Tris pH 7.5, 150 mM KCl, 3 mM MgCl2, 0.01% Triton X-100, 500 ug/ml BSA, 20 U/ml SUPERase-In, 4 C; UNK is unkempt and MSI1 is Musashi-1; names of the RNAs are library labels; protein concentration not given here; high values mean tight binding.
B1 gave a binding signal of 1.07 enrichment R.

As to B2, the binding signal worked out at 0.832 enrichment R.

Turning to B3, the binding signal was determined as 0.412 enrichment R.

The molecule B4 showed a binding signal of 0.882 enrichment R.

As for B5, the binding signal was 1.46 enrichment R.

For the molecule B6, the binding signal was found to be 0.908 enrichment R.

For the molecule B7, the binding signal turned out to be 1.07 enrichment R.

Regarding B8, the binding signal turned out to be 0.701 enrichment R.

For B9, the binding signal stood at 0.392 enrichment R.

B10 gave a binding signal of 0.754 enrichment R.

B11 returned a binding signal of 1.04 enrichment R.

Molecule B12 showed a binding signal of 0.695 enrichment R.

B13 showed a binding signal of 0.543 enrichment R.

In the case of B14, the binding signal came to 0.628 enrichment R.

Take B15: the binding signal is 0.344 enrichment R.

Molecule B16 yielded a binding signal of 0.57 enrichment R.

In turn, B17 registered a binding signal of 1.23 enrichment R.

On to B18, for which the binding signal was 1.5 enrichment R.

The molecule B19 gave a binding signal of 1.25 enrichment R.

In the case of B20, the binding signal came to 0.895 enrichment R.

B21: the binding signal came out at 2.8 enrichment R.

The molecule B22 displayed a binding signal of 0.925 enrichment R.

Values taken from paper PMC12136788.
